Measurements: PMC12102759

B1: CBL peptide 540-555 (E3 ubiquitin-protein ligase CBL), 16-mer library wild type / YES SH3 (YES1 SH3 domain, residues 90-152) (parent)
chain 1: RDLPPPPPPDRPYSVG
chain 2: TGGVTIFVALYDYEARTTEDLSFKKGERFQIINNTEGDWWEARSIATGKNGYIPSNYVAPADS
B2: BCAR1 peptide 629-644 (Breast cancer anti-estrogen resistance protein 1), 16-mer library wild type / YES SH3 (YES1 SH3 domain, residues 90-152) (parent)
chain 1: TSSIQSRPLPSPPKFT
chain 2: B1 chain 2
B3: BCAR1 peptide 627-642 (Breast cancer anti-estrogen resistance protein 1), 16-mer library wild type / YES SH3 (YES1 SH3 domain, residues 90-152) (parent)
chain 1: DKTSSIQSRPLPSPPK
chain 2: B1 chain 2

Variants of: B1
Assay: proteomic peptide phage display deep mutational scan (ProP-PD DMS): M13 P8 16-mer library selected against immobilised GST-tagged bait for four days (rounds), NGS of the eluted pools per day and pseudo-replica
Conditions: with YES SH3 (YES1 SH3 domain, residues 90-152); bait immobilised on MaxiSorp plates (10 µg), library pre-cleared on GST, 2 h binding at 4 °C, five washes; one round per day, days 1-4; value from days 2 and 3; keep out of graded; scale: average fractional NGS count over selection days 2 and 3

Variant	screen value
chain 1 P12E	6.36e-05
chain 1 P12T	3.4e-05
chain 1 P12R	1.87e-05
chain 1 Y13T	4.73e-05
chain 1 P6D	6.74e-05
chain 1 P6I	0
chain 1 R1D	3.74e-05
chain 1 R1W	1.53e-05
chain 1 P9H	4.85e-05
chain 1 P9N	1.81e-05
chain 1 S14W	0
chain 1 P4D	2.85e-05
chain 1 P4S	6.3e-05

Further lines, results first:

screen value	Variant
1.05e-05	chain 1 D2T
6.04e-05	chain 1 D2L
3.77e-05	chain 1 L3Y
0	chain 1 L3H
4.03e-05	chain 1 L3D
2.75e-05	chain 1 L3R
1.01e-05	chain 1 Y13D
8.8e-05	chain 1 Y13M
2.27e-05	chain 1 P6H
1.74e-05	chain 1 P6T
6.53e-05	chain 1 P6S
8.17e-06	chain 1 P6G
1.69e-05	chain 1 P8H
6.78e-05	chain 1 P8R
4.82e-05	chain 1 P8Q
7.56e-06	chain 1 R1Y
2.27e-05	chain 1 R1G
3.6e-05	chain 1 R1S
4.8e-05	chain 1 P5E
1.15e-05	chain 1 P7S
1.41e-05	chain 1 V15D
2.07e-05	chain 1 R11W
4.27e-05	chain 1 R11N
2.32e-05	chain 1 S14K
1.63e-05	chain 1 D10R
0	chain 1 P4W
3.48e-05	chain 1 P4R
4.39e-05	chain 1 P4N

Variants of: B2
Assay: as above
Conditions: with YES SH3 (YES1 SH3 domain, residues 90-152); bait immobilised on MaxiSorp plates (10 µg), library pre-cleared on GST, 2 h binding at 4 °C, five washes; one round per day, days 1-4; value from days 2 and 3; keep out of graded; scale: average fractional NGS count over selection days 2 and 3

Variant	screen value
chain 1 K14N	0.0005
chain 1 K14P	0.000397
chain 1 P8L	3.6e-05
chain 1 P8D	4.6e-05
chain 1 P8H	4e-05
chain 1 T1H	0.000136
chain 1 F15E	0.000232
chain 1 F15L	0.000133
chain 1 P12R	2.03e-05
chain 1 L9I	0.000119
chain 1 R7E	0.000105
chain 1 S2P	8.12e-05
chain 1 S2D	0.000125
chain 1 S2W	0.00126
chain 1 S2N	5.23e-05
chain 1 S2K	0
chain 1 S11E	0.00407
chain 1 S6G	0.00078
chain 1 S6Q	2.53e-05
chain 1 S6N	0.000192
chain 1 S6I	0.000204
chain 1 I4F	4.23e-05
chain 1 P13L	0.00223
chain 1 P13W	0.000152
chain 1 Q5I	0.000326

More lines, now with the values ahead:

screen value	Variant
0.00279	chain 1 K14L
0.000402	chain 1 K14W
0.000624	chain 1 K14E
0.00015	chain 1 P8M
4.51e-05	chain 1 P8Q
7.48e-05	chain 1 F15Y
0.000147	chain 1 F15W
0.00233	chain 1 F15M
0.000176	chain 1 F15V
4.4e-05	chain 1 F15Q
0.00334	chain 1 P12Q
0.000217	chain 1 S2A
0	chain 1 S3D
0.000322	chain 1 S3Y
6.68e-05	chain 1 S3N
0.000125	chain 1 S11A
3.41e-05	chain 1 S11Y
2.23e-05	chain 1 S11L
2.62e-05	chain 1 S11W
0.000247	chain 1 S6D
0.000462	chain 1 S6L
6.23e-05	chain 1 S6W
8.36e-05	chain 1 I4N
6.92e-05	chain 1 P13T
2.27e-05	chain 1 P10K
0.000333	chain 1 Q5M
0.000112	chain 1 Q5Y
0.000131	chain 1 Q5G
0.000181	chain 1 Q5D
0.000337	chain 1 Q5W

Variants of: B3
Assay: as above
Conditions: with YES SH3 (YES1 SH3 domain, residues 90-152); bait immobilised on MaxiSorp plates (10 µg), library pre-cleared on GST, 2 h binding at 4 °C, five washes; one round per day, days 1-4; value from days 2 and 3; keep out of graded; scale: average fractional NGS count over selection days 2 and 3

Variant	screen value
chain 1 I6S	3.96e-05
chain 1 I6Q	0.000104
chain 1 I6A	0.000117
chain 1 I6N	0.000337
chain 1 I6E	4.52e-05
chain 1 I6D	0.000255
chain 1 I6Y	0.000104
chain 1 I6F	0.000384
chain 1 K16G	0.000127
chain 1 K16A	0.00513
chain 1 K16W	0.00245
chain 1 K16M	0.000291
chain 1 K16H	0.00232
chain 1 K16Y	0.000555
chain 1 K16V	0.00239
chain 1 K16R	9.53e-05
chain 1 S13R	6.91e-05
chain 1 S13K	0
chain 1 S13V	0.000205
chain 1 S13N	8.06e-05
chain 1 S13D	0.000107
chain 1 S5L	4.23e-05
chain 1 S5H	0.00215
chain 1 S5D	0.000229
chain 1 S5A	0.00108
chain 1 S5F	1.79e-05
chain 1 S5G	0.000507
chain 1 S8R	0.000207
chain 1 S8F	0.000348

Further lines, results first:

screen value	Variant
4.47e-05	chain 1 I6P
0.000109	chain 1 I6V
0.000326	chain 1 I6M
3.02e-05	chain 1 I6H
9.94e-05	chain 1 I6W
2.68e-05	chain 1 I6G
0.00102	chain 1 I6T
0.000527	chain 1 I6L
0.000447	chain 1 K16L
0.000257	chain 1 K16F
0.000335	chain 1 K16D
0.0012	chain 1 K16I
0.000527	chain 1 K16Q
0.000355	chain 1 K16P
0.000201	chain 1 K16N
0.00238	chain 1 K16S
0.000564	chain 1 K16T
0.00055	chain 1 S13M
0.000178	chain 1 S13A
4.93e-05	chain 1 S13H
0.00017	chain 1 S13Q

screen value	Variant
2.81e-05	chain 1 S13W
7.9e-05	chain 1 S13F
0.000242	chain 1 S13I
0.000604	chain 1 S13P
1.39e-05	chain 1 S13E
8.91e-05	chain 1 S13L
1.66e-05	chain 1 S13G
3.84e-05	chain 1 S13Y
0.0002	chain 1 S13T
0.000106	chain 1 S5M
0.000193	chain 1 S5P
0.000132	chain 1 S5Q
7.33e-05	chain 1 S5K
0.000244	chain 1 S5T
0.000182	chain 1 S5V
0.000154	chain 1 S5E
8.28e-05	chain 1 S5R
0.000636	chain 1 S5Y
5.45e-05	chain 1 S5N
0.000171	chain 1 S5W
0.000152	chain 1 S8N
